The source of these data is paper PMC12190436, “5-Ene-2-arylaminothiazol-4(5H)-ones Induce Apoptosis in Breast Cancer Cells” (Cells, 2025).

The test system of the assay is NCI-H322M. As for the experimental part: The primary anticancer assay was performed on a panel of sixty human cancer cell lines derived from nine diseases, in accordance with the protocol of the Drug Evaluation Branch, National Cancer Institute, Bethesda. Novel compounds were added to the cells at a single concentration (10^−2 µM) and incubated for 48 h. The cytotoxic and/or growth inhibitory effects of every compound were evaluated using the sulforhodamine B (SRB) assay. The obtained data were reported as the percentage of growth of the treated cells compared to the untreated control. […] The SRB assay was used to estimate cell viability or growth. Using absorbance measurements [time zero (Tz), control growth in the absence of drug (C), and test growth in the presence of drug (Ti)], the percentage growth was calculated for each drug concentration. Percentage growth inhibition was calculated as follows:
[(Ti − Tz)/(C − Tz)] × 100 for concentrations for which Ti ≥ Tz,
[(Ti − Tz)/Tz] × 100 for concentrations for which Ti < Tz.
Dose–response parameters (GI50, TGI) were calculated for each compound. Molar concentration of the compound that inhibits 50% net cell growth (GI50) was calculated from [(Ti − Tz)/(C − Tz)] × 100 = 50, which is the drug concentration resulting in a 50% lower net protein increase in the treated cells (measured by SRB staining) as compared to the net protein increase seen in the control cells. The drug concentration resulting in total growth inhibition (TGI) was calculated from Ti = Tz. Values were calculated for each of these parameters if the level of activity was reached; however, if the effect was not reached or was excessive, the value for that parameter was expressed as more or less than the maximum or minimum concentration tested. Compounds having GI50 values ≤ 100 μM were declared to be active.

`COc1cc(NC2=NC(=O)C(=Cc3c[nH]c4ccccc34)S2)cc(OC)c1OC` [Les-6418, 5-((1H-Indol-3-yl)methylene)-2-((3,4,5-trimethoxyphenyl)amino)thiazol-4(5H)-one] returned a TGI (48 h) of 21.2 µM. The molecule also yielded a GI50 (Homo sapiens, 48 h) of 6.38 µM. In addition, the CC50 (Homo sapiens, 48 h, read-out: LC50 (the source's name)) is 54.2 µM. Further, the “SI (TGI)” value (MG_MID_60/value) is 0.88.
